In all, about 310,000 compounds went through this assay and about 14,000 (4.5%) showed an effect of 50% or more. The effect is printed as a negative number. The list shows a part of the results.
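Also: peak tail current of the secondary pulse compared with the same well before compound.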

human ether-à-go-go-related gene (hERG) potassium channel, sequence (Q12809 whole entry, looked up): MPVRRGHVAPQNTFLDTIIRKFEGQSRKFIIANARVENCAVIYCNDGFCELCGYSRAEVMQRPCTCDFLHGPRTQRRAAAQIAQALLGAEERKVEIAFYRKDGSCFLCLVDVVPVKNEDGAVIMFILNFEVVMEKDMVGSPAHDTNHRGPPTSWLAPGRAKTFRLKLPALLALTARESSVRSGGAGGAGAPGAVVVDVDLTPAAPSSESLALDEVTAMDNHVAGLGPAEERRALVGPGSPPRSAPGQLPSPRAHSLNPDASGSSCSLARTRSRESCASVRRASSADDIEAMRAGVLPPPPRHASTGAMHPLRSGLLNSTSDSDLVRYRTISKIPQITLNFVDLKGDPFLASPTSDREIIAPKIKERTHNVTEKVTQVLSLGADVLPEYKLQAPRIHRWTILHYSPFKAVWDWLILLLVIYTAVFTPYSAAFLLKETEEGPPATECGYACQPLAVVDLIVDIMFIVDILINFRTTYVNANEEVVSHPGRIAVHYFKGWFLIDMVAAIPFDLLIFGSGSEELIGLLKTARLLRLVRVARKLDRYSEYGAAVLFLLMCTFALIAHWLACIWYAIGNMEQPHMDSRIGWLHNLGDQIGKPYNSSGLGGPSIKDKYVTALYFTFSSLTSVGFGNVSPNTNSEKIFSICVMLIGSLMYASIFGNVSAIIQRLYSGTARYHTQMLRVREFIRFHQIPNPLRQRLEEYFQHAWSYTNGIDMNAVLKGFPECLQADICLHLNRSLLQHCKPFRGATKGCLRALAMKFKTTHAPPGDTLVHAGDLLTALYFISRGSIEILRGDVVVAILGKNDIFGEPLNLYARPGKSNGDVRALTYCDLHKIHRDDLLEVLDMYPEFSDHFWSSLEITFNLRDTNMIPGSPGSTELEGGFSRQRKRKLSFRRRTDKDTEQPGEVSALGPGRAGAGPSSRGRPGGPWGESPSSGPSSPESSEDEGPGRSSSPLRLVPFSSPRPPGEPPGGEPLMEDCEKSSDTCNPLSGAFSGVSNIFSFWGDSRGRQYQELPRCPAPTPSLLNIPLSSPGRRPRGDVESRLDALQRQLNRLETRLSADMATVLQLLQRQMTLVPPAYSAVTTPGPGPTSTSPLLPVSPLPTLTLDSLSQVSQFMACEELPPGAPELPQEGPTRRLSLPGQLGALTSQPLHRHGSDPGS

The assay has as its target human ether-à-go-go-related gene (hERG) potassium channel (human, UniProt Q12809). Kind of assay: primary screen, population patch clamp on CHO cells stably expressing hERG.
As for `Cc1ccc2nc3c(cc(C(=O)NC4CCCC4)c(=N)n3C3CCCCC3)c(=O)n2c1`, the “hERG current change (%, negative = inhibition) at 10uM” value was -77.2%. Next, `CCOc1ccc(OCCN2C(=O)c3ccccc3C2=O)cc1`: 21.6%; `CC(C)C(=O)NC(c1ccc([N+](=O)[O-])cc1)c1c(O)ccc2ccccc12` (stereo not shown): -1.18%; `CCN(CC)C(=O)c1sc2nc(-c3ccccc3)ccc2c1N`: 5.54%. Take `CC1CC(C)CN(S(=O)(=O)c2ccc(C(=O)N3CCOCC3)cc2)C1` (stereo not shown): the “hERG current change (%, negative = inhibition) at 10uM” value is listed as -2.44%. As for `COc1cc(OC)cc(C(=O)Nc2ccc3c(c2)n(C)c(=O)n3C)c1`, the figure is -1.51%; as for `NC(=O)c1nn(-c2ccccc2)nc1N`, 0.947%. Next, `O=C(O)CCC(=O)Nc1cccc(C(=O)Nc2cccc(Cl)c2)c1`: -0.759%; `CCOC(=O)c1cc2ccccc2nc1C`: 5.32%; `CCN1CCN(Cc2cc(Br)cc(Br)c2O)CC1`: -50.6%. With `CC(C)OCCCN(C)C1CCN(S(=O)(=O)c2ccc(-c3cc(C(F)(F)F)no3)s2)CC1`, the “hERG current change (%, negative = inhibition) at 10uM” value was -54.6%. As for `Cc1ccc(-c2noc(CCC(=O)Nc3ccccc3C)n2)cc1`, the figure is 12.4%; as for `CCOc1ccc(OCc2ccc(C(=O)N3CCCCC3)o2)cc1`, -25.2%. Take `CC1CCN(C(=S)c2ccc(-c3ccc(Cl)cc3Cl)o2)CC1`: the “hERG current change (%, negative = inhibition) at 10uM” value turned out to be 1.17%.

As to `CCOC(=O)C(=CNc1cc(C)ccc1-n1cccc1)C(=O)OCC`, the “hERG current change (%, negative = inhibition) at 10uM” value is 2.05%.

As for `Cc1ccc(NC(=O)CNC(=O)c2ccco2)cc1Cl`, the “hERG current change (%, negative = inhibition) at 10uM” value was 17%. In the case of `COC(=O)c1ccc(Oc2nc3ccccc3n3c(C)nnc23)cc1`, the “hERG current change (%, negative = inhibition) at 10uM” value is listed as -1.15%. As for `COc1ccc(NC(=S)N2c3ccccc3CC2C)cc1OC` (stereo not shown), the figure is -5.96%; as for `CCn1c(=O)c(C(=O)CN(C)Cc2cccc(OC)c2OC)c(N)n(Cc2ccccc2)c1=O`, -50.3%; as for `COc1ccc(-c2ccc(/C=N/NC(=O)Cc3nnc(N)s3)o2)cc1Cl`, 15%. Next, `COc1ccc(Cn2c(C3CC3)nc3ccc(NC(=O)C4CC4)cc3c2=O)cc1`: 5.63%. Consider `Nc1c(S(=O)(=O)c2ccccc2)c2nc3ccccc3nc2n1C1CC1`, for which the “hERG current change (%, negative = inhibition) at 10uM” value is -2.42%. Next, `Cc1ccc(C)c2[nH]c(=O)c(CCNC(=O)c3ccc(S(=O)(=O)N4CCCC4)cc3)cc12`: 11.4%. As for `Cn1cnnc1Sc1ccc(C(=O)NCCC23CC4CC(CC(C4)C2)C3)cc1[N+](=O)[O-]`, the figure is 12.9%; as for `Cc1csc(NC(=O)CCCC(=O)c2ccccc2)n1`, -8.48%; as for `Cc1c(-c2ccccc2)c(=O)oc2ccc(O)cc12`, 13.8%. As for `Cc1csc(=O)n1CC(=O)OCC(=O)NCc1ccccc1`, the figure is 8.37%; as for `CC(=O)OCC[N+](C)(C)C.[Br-]`, 5.06%; as for `O=C(Nc1ccncc1)c1ccc([N+](=O)[O-])cc1Cl`, -3.15%. Regarding `Cc1nnc(SCC(=O)NNC(=O)c2ccco2)n1-c1ccccc1`, the “hERG current change (%, negative = inhibition) at 10uM” value was 41.5%. For `CCN(CCO)C(=O)c1ccc2oc(Cc3ccc(Cl)cc3)nc2c1`, the “hERG current change (%, negative = inhibition) at 10uM” value stood at 7.92%. Next, `Cc1ccc([N+](=O)[O-])cc1N=C1C(=O)Nc2ccccc21`: -20.5%; `Cc1ccc(S(=O)(=O)N2CCC(C(=O)NNC(=O)c3ccccc3O)CC2)cc1C`: -3.47%.

On to `CCOc1ncccc1C(=O)OCC(=O)c1c[nH]c2ccccc12`, for which the “hERG current change (%, negative = inhibition) at 10uM” value was 0.0876%. As to `COc1ccccc1C(CNC(=O)c1cccc(S(=O)(=O)Nc2ccc(C)cc2)c1)N1CCCC1` (stereo not shown), the “hERG current change (%, negative = inhibition) at 10uM” value is -29.8%. Next, `CC(C)N(Cc1nc(-c2ccccc2)no1)C(=O)C(Cl)(Cl)Cl`: 15.6%; `O=C(Nc1nnc(-c2cccc(F)c2)s1)Nc1ccccc1F`: 11.6%.

`CCN(CC)CCn1c(N)nc2ccccc21.Cl`: the “hERG current change (%, negative = inhibition) at 10uM” value is 15.4%. Next, `Nn1c(SC/C=C/c2ccccc2)nnc1-c1ccccn1`: -15.3%; `Cc1cccc(N2CCN(C(=S)NC3CCCCC3)CC2)c1C`: 4.4%; `O=S(=O)(Nc1cccc(-c2cn3c(n2)SCC3)c1)c1ccccc1F`: -11.8%.

For the compound `CC(C)Cc1n[nH]c(=O)[nH]1`, the “hERG current change (%, negative = inhibition) at 10uM” value was -6.31%. As for `CCN1C(=O)c2cccc3c(Cl)ccc(c23)C1=O`, the figure is 14%. Next, `CCOc1ccc(OCc2ccc(C(=O)N3CCCC(C)C3)cc2)cc1` (stereo not shown): -27%; `O=C(c1c(F)cccc1F)N1CCN(c2cccc(C(F)(F)F)c2)CC1`: -5.7%; `COc1ccc(C2/C(=C(\O)c3ccc4c(c3)OCCO4)C(=O)C(=O)N2Cc2cccnc2)cc1OC` (stereo not shown): 20.7%. With `COc1cccc(OCCOCCOc2ccc(C)cc2[N+](=O)[O-])c1`, the “hERG current change (%, negative = inhibition) at 10uM” value is -14.5%. Next, `CCOCCCNC(=O)C1CC(=O)N(CCc2ccccc2)C1` (stereo not shown): 9.05%; `CCn1nc([N+](=O)[O-])c2c(-c3nc4ccccc4o3)c(N)n(CCCOC)c2c1=O`: 14.5%; `COCCOC(=O)C1=C(C)NC(=O)NC1c1cc2c(cc1Br)OCO2` (stereo not shown): 15.4%. Next, `COc1ccccc1Nc1nc(N)nc(CN2CCc3ccccc3C2)n1`: -44.8%. Regarding `COC(=O)c1scc(C)c1N/N=C(\C)c1ccc(F)cc1`, the “hERG current change (%, negative = inhibition) at 10uM” value is reported as -16.2%. As for `COc1cc(CNC(C)c2ccccc2)cc(Br)c1OCc1ccc(F)cc1` (stereo not shown), the “hERG current change (%, negative = inhibition) at 10uM” value was 15.6%. For `COCCNC(=O)c1onc(CSc2cc(C)ccc2C)c1C(=O)O`, the “hERG current change (%, negative = inhibition) at 10uM” value was -2.53%.

Consider `O=C(/C=C\c1ccc2c(c1)OCO2)NC1(C(=O)Nc2ccc3c(c2)OCCO3)CCCCC1`, for which the “hERG current change (%, negative = inhibition) at 10uM” value came out at 6.02%. Next, `COc1cc2ccccc2cc1C(=O)N1CCCC(C(F)(F)F)C1` (stereo not shown): -14.3%; `COc1cccc(NC(=S)NNC(=O)Cn2nc(C(F)(F)F)cc2C)c1`: 18.2%. Consider `COc1ccc(C(=O)NCCNc2ccc([N+](=O)[O-])cc2)cc1`, for which the “hERG current change (%, negative = inhibition) at 10uM” value is given as -40.9%.

The values are drawn from publication PMC4336329 (PLoS ONE, 2015).
